# Source: publication PMC10114980, “Triple targeting of mutant EGFR^L858R/T790M, COX-2, and 15-LOX: design and synthesis of novel quinazolinone tethered phenyl urea derivatives for anti-inflammatory and anticancer evaluation” (Journal of Enzyme Inhibition and Medicinal Chemistry, 2023)
# Several values for one entry are separate records, joined by “and”; a condition that tells them apart may be missing. Identical values can stand only once.
# What was measured:
# [1] = system: LPS-induced IL-6 production in RAW 264.7 cells; test: IL-6 production in LPS-activated RAW 264.7 cells (ELISA); format: cell-based; conditions: LPS-activated RAW 264.7 cells treated with 25 µM of the compound
# [2] = system: LPS-induced TNF-α production in RAW 264.7 cells; test: TNF-α production in LPS-activated RAW 264.7 cells (ELISA); format: cell-based; conditions: LPS-activated RAW 264.7 cells treated with 25 µM of the compound
# [3] = target: T1, double mutant EGFR^L858R/T790M (Homo sapiens, UniProt P00533, L858R/T790M); test: In vitro EGFR inhibition assay, double mutant; format: biochemical; conditions: double mutant EGFR
# T1 construct: purchased AssayQuant Technologies, Inc. (Marlboro, MA, USA)
# [4] = target: T2, ovine COX-1 (Ovis aries, UniProt P05979); test: In vitro COX-1 inhibition assay kit (Cayman); format: biochemical; conditions: mean ± SEM, n = 3 replicates
# T2 sequence (P05979 25-600): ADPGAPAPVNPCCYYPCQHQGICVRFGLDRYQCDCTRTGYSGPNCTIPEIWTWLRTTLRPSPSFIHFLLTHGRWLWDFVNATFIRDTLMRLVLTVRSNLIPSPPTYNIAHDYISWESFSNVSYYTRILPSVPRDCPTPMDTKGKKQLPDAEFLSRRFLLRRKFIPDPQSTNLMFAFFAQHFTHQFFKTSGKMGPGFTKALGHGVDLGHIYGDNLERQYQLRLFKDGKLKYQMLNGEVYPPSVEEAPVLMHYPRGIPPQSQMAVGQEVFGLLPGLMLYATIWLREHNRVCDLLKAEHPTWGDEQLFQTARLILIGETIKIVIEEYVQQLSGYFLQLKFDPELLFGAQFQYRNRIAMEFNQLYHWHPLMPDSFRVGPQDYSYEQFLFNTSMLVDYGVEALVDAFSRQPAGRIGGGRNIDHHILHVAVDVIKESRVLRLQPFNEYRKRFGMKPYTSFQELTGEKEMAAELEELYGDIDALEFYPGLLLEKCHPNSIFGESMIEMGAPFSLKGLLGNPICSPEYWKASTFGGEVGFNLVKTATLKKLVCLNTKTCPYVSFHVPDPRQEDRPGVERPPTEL
# [5] = target: T3, wild-type EGFR (Homo sapiens, UniProt P00533); test: In vitro EGFR inhibition assay, wild type; format: biochemical
# T3 construct: purchased AssayQuant Technologies, Inc. (Marlboro, MA, USA)
# [6] = target: T4, soybean 15-LOX (Glycine max, UniProt P08170); test: 15-LOX inhibitor screening assay (Cayman); format: biochemical; conditions: mean ± SEM, n = 3 replicates
# T4 sequence (P08170 1-839): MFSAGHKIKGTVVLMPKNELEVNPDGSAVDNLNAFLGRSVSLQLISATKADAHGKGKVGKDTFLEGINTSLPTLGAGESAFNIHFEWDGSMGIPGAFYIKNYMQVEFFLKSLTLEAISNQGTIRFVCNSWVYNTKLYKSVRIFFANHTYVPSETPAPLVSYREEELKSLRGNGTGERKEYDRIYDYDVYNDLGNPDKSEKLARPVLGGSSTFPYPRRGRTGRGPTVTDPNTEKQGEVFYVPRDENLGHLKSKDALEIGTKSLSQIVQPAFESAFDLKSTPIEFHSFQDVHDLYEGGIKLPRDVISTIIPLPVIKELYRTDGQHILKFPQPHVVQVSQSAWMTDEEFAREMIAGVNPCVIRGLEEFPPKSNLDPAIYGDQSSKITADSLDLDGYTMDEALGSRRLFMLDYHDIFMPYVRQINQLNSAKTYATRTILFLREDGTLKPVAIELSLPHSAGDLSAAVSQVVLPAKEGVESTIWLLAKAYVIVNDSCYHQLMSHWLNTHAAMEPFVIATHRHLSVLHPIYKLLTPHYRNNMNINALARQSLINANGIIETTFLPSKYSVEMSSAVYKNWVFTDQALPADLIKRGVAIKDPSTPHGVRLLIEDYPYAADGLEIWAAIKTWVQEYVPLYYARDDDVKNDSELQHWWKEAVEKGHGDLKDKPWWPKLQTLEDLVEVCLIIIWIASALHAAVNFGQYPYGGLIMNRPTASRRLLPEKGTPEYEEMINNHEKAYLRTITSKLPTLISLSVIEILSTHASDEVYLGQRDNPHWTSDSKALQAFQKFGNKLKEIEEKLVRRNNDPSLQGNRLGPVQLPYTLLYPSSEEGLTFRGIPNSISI
# [7] = target: T5, human recombinant COX-2 (Homo sapiens, UniProt P35354); test: In vitro COX-2 inhibition assay kit (Cayman); format: biochemical; conditions: for IC50: human recombinant COX-2, mean ± SEM, n = 3 replicates; for COX-2 SI: Selectivity index = COX-1 IC50/COX-2 IC50
# T5 sequence (P35354 18-604): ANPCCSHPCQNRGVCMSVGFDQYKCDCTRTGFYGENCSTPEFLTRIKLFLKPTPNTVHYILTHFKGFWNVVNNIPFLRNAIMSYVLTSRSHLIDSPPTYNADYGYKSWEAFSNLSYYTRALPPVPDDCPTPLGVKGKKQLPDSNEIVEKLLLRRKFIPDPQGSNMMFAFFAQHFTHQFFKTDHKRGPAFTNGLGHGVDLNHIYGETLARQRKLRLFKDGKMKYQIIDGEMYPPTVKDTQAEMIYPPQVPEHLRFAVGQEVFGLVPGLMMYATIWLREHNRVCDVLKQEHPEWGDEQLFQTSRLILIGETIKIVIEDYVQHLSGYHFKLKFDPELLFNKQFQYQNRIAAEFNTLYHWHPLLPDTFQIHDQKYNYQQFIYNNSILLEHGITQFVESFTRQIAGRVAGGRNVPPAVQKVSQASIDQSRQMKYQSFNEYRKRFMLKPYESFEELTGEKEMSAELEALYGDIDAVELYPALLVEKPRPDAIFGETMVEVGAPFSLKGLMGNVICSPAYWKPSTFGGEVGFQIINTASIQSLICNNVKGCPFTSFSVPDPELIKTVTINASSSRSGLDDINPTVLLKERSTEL
# [8] = system: LPS-induced ROS production in RAW 264.7 cells; test: ROS production in LPS-activated RAW 264.7 macrophage cells (DCFH-DA); format: cell-based; conditions: LPS-activated RAW 264.7 cells
# Experimental: TNF-α and IL-6 production were detected in RAW 264.7 macrophage cell culture supernatants following the induction of inflammation by LPS. Moreover, the probes of oxidative species 2,7-dichlorofluorescein diacetate (DCFH-DA) (Molecular Probes) and NO, 4-amino-5-methylamino-2,7-difluorofluorescein diacetate (DAF-FM diacetate) (Molecular Probes) were used to investigate the antioxidant and NO production inhibitory potential of the test compounds. Briefly, RAW 264.7 cells were cultured in black 96 well plates (200 000 cells/mL, 100 µl/well) for 24 h followed by the incubation with the individual test compounds or the reference drugs at different concentrations (12.5, 25, 50, and 100 µM) for 2 h at 37 °C. LPS was then added at a final concentration of 1 µg/mL for an additional 18 h. The cell culture supernatant was collected from cells treated with the different compounds at 25 µM to measure TNF-α and IL-6 levels (1:10 dilution) using DuoSet ELISA kits (R&D Systems, Minneapolis, MN) following the manufacturer’s instructions. Then, the plates were washed to perform ROS and NO detection assays as detailed in our previous studies[16]^,[27].
# [9] = system: EGFR (WT); conditions: Figure 2; cited from earlier work
# [10] = system: EGFR (L858R/T790M); conditions: Figure 2; cited from earlier work
smiles,measurement,setting,value
"Cc1ccc(-c2cc(C(F)(F)F)nn2-c2ccc(S(N)(=O)=O)cc2)cc1 [Celecoxib, celecoxib, reference compound]",IL-6 concentration,[1]; listed as celecoxib,176.4 pg/mL
same,TNF-α concentration,[2]; listed as celecoxib,383.3 pg/mL
"CC1N(NC(=O)Nc2ccccc2)C(=O)c2ccccc2N1C (stereo not shown) [Compound 6b, 1-(1,2-Dimethyl-4-oxo-1,4-dihydroquinazolin-3(2H)-yl)-3-phenylurea]",EGFR^L858R/T790M IC50,[3],did not show any inhibitory activity
same,IC50,[4],33600 ± 3170 nM
same,melting point,,161 to 163 °C
same,TNF-α concentration,[2],779.60 pg/mL and 779.60 ± 7.41 pg/mL
same,EGFR^WT IC50,[5],did not show any inhibitory activity
same,IC50,[6],2320 ± 310 nM
same,IC50,[7],> 100000 nM
"COc1ccc(C2N(NC(=O)Nc3ccccc3)C(=O)c3ccccc3N2C)cc1 (stereo not shown) [Compound 6f, 1-(2-(4-Methoxyphenyl)-1-methyl-4-oxo-1,4-dihydroquinazolin-3(2H)-yl)-3-phenylurea]",EGFR^L858R/T790M IC50,[3],did not show any inhibitory activity
same,IC50,[4],3600 ± 1570 nM
same,melting point,,198 to 200 °C
same,EGFR^WT IC50,[5],did not show any inhibitory activity
same,IC50,[6],2130 ± 260 nM
same,COX-2 SI,[7],1.69
same,IC50,[7],2130 ± 1370 nM
"COc1ccc(NC(=O)NN2CN(C)c3ccccc3C2=O)cc1 [Compound 6g, 1-(4-Methoxyphenyl)-3-(1-methyl-4-oxo-1,4-dihydroquinazolin-3(2H)-yl)urea]",melting point,,219 to 221 °C
same,ROS IC50,"[8]; mean ± SEM, three replicates",neither compound 6e nor compound 6g inhibited ROS production significantly
same,COX-2 SI,[7],0.78
same,IC50,[7],3920 ± 1440 nM
"COc1ccc(NC(=O)NN2C(=O)c3ccccc3N(C)C2c2ccccc2)cc1 (stereo not shown) [Compound 6h, 1-(4-Methoxyphenyl)-3-(1-methyl-4-oxo-2-phenyl-1,4-dihydroquinazolin-3(2H)-yl)urea]",IC50,[4],47500 ± 4990 nM
same,melting point,,196 to 198 °C
same,TNF-α concentration,[2],720.60 pg/mL and 720.60 ± 4.90 pg/mL
same,IC50,[6],2030 ± 370 nM
same,COX-2 SI,[7],16.92
same,IC50,[7],2810 ± 1200 nM
"COc1ccc(NC(=O)NN2C(=O)c3ccccc3N(C)C2c2ccc([N+](=O)[O-])cc2)cc1 (stereo not shown) [Compound 6i, 1-(4-Methoxyphenyl)-3-(1-methyl-2-(4-nitrophenyl)-4-oxo-1,4-dihydroquinazolin-3(2H)-yl)urea]",IC50,[4],7630 ± 2070 nM
same,melting point,,217 to 219 °C
same,IL-6 concentration,[1],84.60 pg/mL and 84.60 ± 2.67 pg/mL
same,"ROS inhibition, fold more potent than diclofenac",[8],≈ 8 fold
same,IC50,[6],2070 ± 270 nM
"CN1CN(NC(=O)Nc2ccc(F)cc2)C(=O)c2ccccc21 [Compound 6k, 1-(4-Fluorophenyl)-3-(1-methyl-4-oxo-1,4-dihydroquinazolin-3(2H)-yl)urea]",EGFR^L858R/T790M IC50,[3],did not show any inhibitory activity
same,IC50,[4],57700 ± 2410 nM
same,melting point,,246 to 248 °C
same,IL-6 concentration,[1],88.53 pg/mL and 88.53 ± 0.87 pg/mL
same,"ROS inhibition, fold more potent than diclofenac",[8],≈ 8 fold
same,EGFR^WT IC50,[5],did not show any inhibitory activity
same,IC50,[6],2080 ± 330 nM
same,COX-2 SI,[7],11.24
same,IC50,[7],5130 ± 1370 nM
C=CC(=O)Nc1cccc(-n2c(-c3ccccc3)nc3cc(I)ccc3c2=O)c1 [F],IC50,[9],26 nM
same,IC50,[10],5.7 nM
C=CC(=O)Nc1ccc2ncc(NC(=O)Nc3ccccc3)nc2c1 [H],IC50,[9],25 nM
